According to PubChem BioAssay AID924 (National Center for Advancing Translational Sciences (NCATS), 2007):
Screen size: about 130,000 compounds; about 1,200 (0.92%) were called active. This list was built around the results that the source calls inconclusive (neither active nor inactive); the mix of calls is not that of the screen. Calls come from the whole dose curve; as a rule, active = well fitted cell-killing curve with a large enough effect; inconclusive = small, poorly fitted or top-dose-only effect; inactive = no such curve, though single readings can be large or run the other way. A potency beside an inconclusive call is a rough fit, not a confirmed value.

Experiment: qHTS Screen for Compounds that Selectively Target Cancer Cells with p53 Mutations: Cytotoxicity of p53ts Cells at the Permissive Temperature; note: nearly all actives have a fitted effect of over 55% in size;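 for activity change, negative = cytotoxicity: 0% = DMSO and -100% = full killing by reference compound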
Details: H1299-p53A138V at 32C, ATP luminescence viability, 24 h; activity change, negative = cytotoxicity: at 46.1 µM (top of the series)
Procedure, shortened: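 Cells: H1299 p53ts (A138V), 600/well, pre-incubated 16–30 h at 37C. Cpd up to 46 uM, 24 h, 32C. Readout: ATPlite luminescence, 20 min RT. Normalization: DMSO vs tamoxifen 100 uM. AC50 by Hill equation.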
Potency is the fitted concentration of half-maximal effect; tags give direction and shape of the fitted curve.

Row | SMILES | activity change, negative = cytotoxicity | Potency
1 | CCCCCCCCc1nc(=S)[nH][nH]1 | inactive: -2.43% | 
2 | O=C(Nc1ccc2nc(-c3cccs3)[nH]c2c1)c1ccco1 |  | inconclusive: 12.6 µM [cytotoxic, partial curve]
3 | Cc1ccc(C)c(Nc2nn3c(=O)c4ccc(C(=O)NCCC5=CCCCC5)cc4nc3s2)c1 |  | inconclusive: 3.98 µM [cytotoxic, full curve]
4 | Cc1cccc(N(CC(N)=O)C2SC(=O)N(c3ccccc3)C2=O)c1 (configuration not stated) | inactive: 2.83% | 
5 | Cc1ccc(CC2CC(=O)N(CCc3ccc4c(c3)OCO4)C2=O)cc1 (configuration not stated) | inactive: -8.51% | 
6 | CCSc1nnc(-c2ccc(OC)cc2)o1 |  | inconclusive: 20 µM [cytotoxic, partial curve]
7 | CN(CC(=O)Nc1ccc(F)c(F)c1F)c1cnccn1 |  | inconclusive: 31.6 µM [cytotoxic, single point]
8 | CCOc1ccc(Nc2nc(Cc3nnc(SCC(=O)O)o3)cs2)cc1 |  | inconclusive: 10 µM [cytotoxic, partial curve]
9 | COc1ccc(-c2nc3ccc(NS(C)(=O)=O)cc3o2)cc1 |  | inconclusive: 12.6 µM [cytotoxic, partial curve]
10 | CCOC(=O)c1cc(-c2ccccc2)n(CCC(=O)Nc2ccc(C(F)(F)F)cc2)c1C | inactive: 4.51% | 
11 | CC(C)OC(=O)c1cc(NC(=S)Nc2ccc([N+](=O)[O-])cc2)cc(C(=O)OC(C)C)c1 |  | inconclusive: 5.62 µM [cytotoxic, partial curve, poor fit]
12 | Cc1cccc(NC(=O)CSc2nc3ccc(NC(=O)COc4ccc(Cl)cc4)cc3s2)c1 |  | inconclusive: 12.6 µM [cytotoxic, partial curve]
13 | CC1=C(C(=O)Nc2cc(C)ccc2C)C2(CCCCCC2)OC1=O | inactive: -1.48% | 
14 | COc1cccc(CNc2ncc(-c3ccc(Br)cc3)n2C)c1 |  | inconclusive: 17.8 µM [cytotoxic, single point]
15 | CC(C)c1cc(C(=O)Nc2cccnc2)no1 |  | inconclusive: 12.6 µM [cytotoxic, partial curve]
16 | COc1ccc(C(=O)Oc2c(Sc3ccccc3)c(C)nn2-c2ccccc2)cc1OC |  | inconclusive: 15.8 µM [cytotoxic, single point]
17 | CCOC(=O)c1ccc2c(c1)N(Cc1cccc(C(F)(F)F)c1)C(=O)c1ccccc1S2(=O)=O | inactive: 14.4% | 
18 | O=C(NCC(c1cccnc1)N1CCOCC1)C(=O)Nc1ccc(F)cc1 (configuration not stated) | inactive: -4.91% | 
19 | O=S(=O)(Nc1cccc(-c2ccc(N3CCCCCC3)nn2)c1)c1ccccc1 |  | inconclusive: 20 µM [cytotoxic, partial curve]
20 | CCC(=O)N/C(N)=N/c1nc(C)c2cc(OC)ccc2n1 |  | inconclusive: 7.94 µM [cytotoxic, partial curve]
21 | COc1ccc(-c2noc(Cn3c(=O)c4ccccc4n(CC(=O)Nc4cccc(C(F)(F)F)c4)c3=O)n2)cc1 | inactive: -3% | 
22 | CN1CCN(CCCNC(=O)c2ccc(CSCc3cccc(Cl)c3)o2)CC1 |  | inconclusive: 6.31 µM [cytotoxic, partial curve]
23 | CC(C)(O)c1cc(=O)sc2nc3ccccc3n12 |  | inconclusive: 10 µM [cytotoxic, partial curve]
24 | CC1CCN(c2nc3ccc(C(=O)O)cc3s2)CC1 |  | active: 10 µM

Row | SMILES | activity change, negative = cytotoxicity | Potency
25 | Cc1ccc(CNC(=O)c2oc3ccc(S(=O)(=O)N4CCC(C)CC4)cc3c2C)cc1 | inactive: 10.3% | 
26 | Cc1oc(-c2ccc(F)cc2)cc1-c1nn2c(-c3ccoc3C)nnc2s1 | inactive: 8.97% | 
27 | O=C(Nc1cccc(-c2nc3ncccc3o2)c1)c1cc2ccccc2o1 |  | inconclusive: 20 µM [cytotoxic, single point]
28 | O=C(/C=C/c1ccc(OCc2ccccc2)cc1)c1cccs1 |  | inconclusive: 12.6 µM [cytotoxic, full curve]
29 | CCOc1ccc(/C=C/c2nc(C#N)c(NC3CCCCC3)o2)cc1 | inactive: 5.28% | 
30 | CCOc1ccccc1OCc1nn2c(COc3ccccc3)nnc2s1 | inactive: -6.98% | 
31 | Brc1ccc(CNCCCSc2nnnn2-c2ccccc2)cc1 |  | inconclusive: 5.62 µM [cytotoxic, single point]
32 | Cc1cccc(-c2nc(SCC(=O)NCC3CCCO3)c3c(=O)n(C)c(=O)n(C)c3n2)c1 (configuration not stated) | inactive: 6.65% | 
33 | C#CCn1c(/C=C/c2ccc(Cl)cc2)nc2ccccc21 |  | active: 3.98 µM
34 | CCCCN(C)CC(O)Cn1cc(/C=C/C(=O)c2ccc(OC)c(OC)c2)c2ccccc21 (configuration not stated) |  | active: 20 µM
35 | COc1ccc(N2CCN(c3nc(NCCc4ccc(OC)c(OC)c4)nc(OC)n3)CC2)cc1 |  | inconclusive: 31.6 µM [cytotoxic, single point]
36 | Cn1c(C(=O)NCc2ccccn2)cc2c(=O)n3ccccc3nc21 |  | inconclusive: 6.31 µM [cytotoxic, full curve, poor fit]
37 | Clc1ccc2nc(N3CCCCC3)[nH]c2c1 |  | inconclusive: 12.6 µM [cytotoxic, partial curve]
38 | COc1cccc2c1[C@@H]1CN(CCCCn3c(=O)[nH]c4c(sc5ncc(-c6ccccc6)nc54)c3=O)C[C@H]1CO2 |  | inconclusive: 25.1 µM [cytotoxic, single point]
39 | C=C(C)COc1ccc(-c2n[nH]c(C)c2-c2ccccc2OC)c(O)c1 |  | inconclusive: 31.6 µM [cytotoxic, single point]
40 | CCOc1cc(CNCCSc2nnnn2C)ccc1OCc1ccc(Cl)cc1Cl |  | active: 35.5 µM
41 | COc1ccc(CN2C(=O)N(c3cccc(C)c3)C(=O)C2CC(=O)Nc2ccc(F)cc2)cc1OC (configuration not stated) | inactive: 1.6% | 
42 | COc1cccc(C(=O)Nc2nc3c(s2)CCCC3)c1 |  | active: 10 µM
43 | COc1ccc(-n2c(=O)c3ccc(C(=O)NCc4ccc(C)cc4)cc3n(CC(=O)Nc3cccc(F)c3)c2=O)cc1 | inactive: -23.3% | 
44 | Cc1ccc(CNC(=O)c2cc3cc(C)ccc3n2C)cc1 |  | inconclusive: 1 µM [cytotoxic, full curve]
45 | CC1(C)C(=O)NC2=C1C(=O)C(=O)c1ccccc12 |  | active: 1.26 µM
46 | O=[N+]([O-])c1ccc(-c2cn(-c3ccc(Cl)cc3)c(=S)[nH]2)cc1 |  | inconclusive: 0.562 µM [cytotoxic, partial curve, poor fit]
47 | Cc1c(C(=O)NCCc2ccccc2)oc2ccc(S(=O)(=O)N3CCOCC3)cc12 |  | inconclusive: 0.316 µM [cytotoxic, full curve, poor fit]
